According to patent US20230272055A1, “ANTI-MUTANT CALRETICULIN (CALR) ANTIBODIES AND USES THEREOF” (Incyte Corporation, priority 2021, published 2023):

How the values were obtained:
[1] = system: Ba/F3 cells transfected with MPL and mutCALR Type 1; experiment: Inhibition of cell proliferation, CellTiter-Glo 72 hours, mutCALR Type 1; assay type: cell-based; conditions: Ba/F3 engineered cells, high-throughput primary screening
Experimental: To test the ability of anti-mutCALR antibodies to inhibit cell proliferation, engineered Ba/F3 cells transfected with MPL and mutCALR Type 1 were plated at 5,000 cells per well in RPMI 1640+2% FBS, antibodies added, incubated for 72 hours, and followed by assessment of cell viability using the CellTiter-Glo Luminescent Cell Viability Assay (Promega, Madison, Wis.) and Top Count (Perkin Elmer, Boston, Mass.) or Pherastar (BMG Labtech, Ortenberg, Germany) for luminescence quantification. Anti-mutCALR antibodies inhibit mutCALR-induced oncogenic cell proliferation in a dose-dependent manner in both the Ba/F3 engineered cells (FIG. 2).
To test the ability of anti-mutCALR antibodies to inhibit oncogenic cell proliferation triggered by the Type 1 and Type 2 CALR mutations, Ba/F3 cells (DSMZ) were engineered to express MPL+mutCALR Type 1 (52 bp deletion, SEQ ID NO:320) or MPL+mutCALR Type 2 (5 bp insertion; SEQ ID NO:321). Cells were plated at 5,000 cells per well in RPMI 1640+2% FBS, antibodies added, incubated for 72 hours, and followed by assessment of cell viability using the CellTiter-Glo Luminescent Cell Viability Assay (Promega, Madison, Wis.) and Top Count (Perkin Elmer, Boston, Mass.) or Pherastar (BMG Labtech, Ortenberg, Germany) for luminescence quantification. Anti-mutant CALR antibodies show potency to inhibit mutCALR-induced oncogenic cell proliferation associated with both Type 1 and Type 2 mutations (FIG. 3).

[2] = molecular target: T1, recombinant MBP-mutCALR Type 1 fusion protein (Homo sapiens, UniProt P27797, DEL40-40); experiment: Biacore SPR binding kinetics, Experiment 1; conditions: Biacore 8K, 25° C., 1:1 binding model
T1 construct: His6 (N); purchased Cepter (cepterbiopartners.com), custom made
Experimental: (§1) The amino acid sequence of recombinant MBP-mutCALR Type 1 fusion protein used in Experiments 1 and 2 is:
Experiment 1: Recombinant MBP-mutCALR Type 1 fusion protein was custom made at Cepter (cepterbiopartners.com). Data for the interaction of antibodies with recombinant MBP-mutCALR Type 1 fusion protein were collected at 25° C. on a Biacore 8K instrument (Cytiva, Marlborough, Mass.), and all reagents were obtained from Cytiva unless otherwise specified. The experiments were conducted using Tris-buffered saline (pH 7.2), 0.005% Surfactant P20, 1 mM CaCl2) as running buffer. To prepare the capture surfaces, anti-human IgG (Fc) antibodies (Product #29234600) was amine-coupled onto a CM4 chip (Product #BR100534) under standard conditions using an Amine Coupling Kit (Product #BR100050). Anti-mutCALR antibodies were captured onto the chip surface by injecting over flow cell 2 only at a flow rate of 30 μL/min for 30 seconds. […] The kinetics parameters were obtained by applying 1:1 binding model to fit the data from multiple-cycle injection experiments using Biacore Insight Evaluation software.

[3] = system: BaF3 cells expressing MPL/mutCALR Type 1; experiment: Example 16 inhibition of cell proliferation, CellTiter-Glo 72 hours; assay type: cell-based; conditions: BaF3 cells expressing MPL/mutCALR Type 1, 72 hours
Experimental: The ability of the five antibodies shown here to inhibit cell proliferation was tested. Inhibition of cell proliferation was assessed using engineered BaF3 cells expressing MPL/mutCALR Type 1. Cells were plated at 5,000 cells per well in RPMI 1640+2% FBS, antibodies were added and incubated for 72 hours, followed by assessment of cell viability using the CellTiter-Glo Luminescent Cell Viability Assay (Promega, Madison, Wis.) and Top Count (Perkin Elmer, Boston, Mass.) or Pherastar (BMG Labtech, Ortenberg, Germany) for luminescence quantification. […] The data shown in FIGS. 21A and 21B were compiled from different experiments.

[4] = system: Ba/F3-TPOR/mutCALR type 1 engineered cells; experiment: Cell proliferation with antibody and/or ruxolitinib, mutCALR Type 1; assay type: cell-based; conditions: log value, 72 hours, marked *
Experimental: To test the ability of anti-mutCALR antibodies to potentiate the therapeutic response of the JAK1/2 inhibitor ruxolitinib, Ba/F3 cells were engineered to express MPL+mutCALR Type 1 (52 bp deletion) or MPL+mutCALR Type 2 (5 bp insertion) as described above. Cells were plated at 5,000 cells per well in RPMI 1640+2% FBS, treated with 50 nM of ruxolitinib and/or anti-mutCALR antibodies. Cells were incubated for 72 hours followed by assessment of cell viability using the CellTiter-Glo Luminescent Cell Viability Assay (Promega, Madison, Wis.) and Top Count (Perkin Elmer, Boston, Mass.) or Pherastar (BMG Labtech, Ortenberg, Germany) for luminescence quantification. Ruxolitinib used at a concentration of 50 nM inhibited the level of oncogenic cell proliferation by approximately 20% (dotted line).

[5] = system: MPL-mutCALR cells (BaF3 cells stably expressing human MPL and human mutCALR); experiment: Flow cytometry binding to cell surface MPL and mutCALR (GMFI, four parameter fit); conditions: cell binding, GMFI, four parameter curve fitting
Experimental: To assess binding of CALR antibodies to cell surface CALR, parental BaF3 (DSMZ) cells or BaF3 cells stably expressing only human MPL or both human MPL (Uniprot Number: P40238-1) and human mutCALR Type 1 and Type 2 were used. On the day of the assay, cells were washed and resuspended in assay buffer. Approximately 200,000 cells/well were added to 96-well plates and stained with the indicated concentration of antibodies for 30 minutes on ice. Cells were then washed and stained with goat anti-human secondary conjugated to R-phycoerythrin (R-PE) (Jackson Immuno Research Laboratories) for 30 minutes on ice. The cells were then washed and analyzed by flow cytometry. Geometric Mean Fluorescence Intensity (GMFI) of cell binding was graphed and EC50, hill slope, and area under the curve (AUC) were determined after four parameter curve fitting using GraphPad Prism Software (version 7.04).

[6] = molecular target: T1, recombinant MBP-mutCALR Type 1 fusion protein; experiment: Biacore SPR binding kinetics, Experiment 2 (parental and variant antibodies); conditions: Biacore 8K, 25° C., 1:1 binding model
Experimental: as §1
Experiment 2: Recombinant MBP-mutCALR Type 1 fusion protein was custom made at Cepter (cepterbiopartners.com). Data for the interaction of antibodies with recombinant mutCALR protein were collected at 25° C. on a Biacore 8K instrument (Cytiva, Marlborough, Mass.), and all reagents were obtained from Cytiva unless otherwise specified. The experiments were conducted using Tris-buffered saline (pH 7.2), 0.005% Surfactant P20, 1 mM CaCl2) as running buffer. To prepare the capture surfaces, anti-human IgG (Fc) antibodies (Product #29234600) was amine-coupled onto a CM4 chip (Product #BR100534) under standard conditions using an Amine Coupling Kit (Product #BR100050). Anti-mutCALR antibodies were captured onto the chip surface by injecting over flow cell 2 only at a flow rate of 10 μL/min for 30 seconds. […] Recombinant MBP-mutCALR Type 1 fusion protein was prepared at nominal concentrations of 0, 0.75, 2.22, 6.67, 20, and 60 nM and injected over both flow cells 1 and 2 for 150 seconds at a flow rate of 69 L/min, followed by a 230-second dissociation phase at the same flow rate. The kinetics parameters were obtained by applying 1:1 binding model to fit the data from multiple-cycle injection experiments using Biacore Insight Evaluation software.

B1: 39 (antibody)
heavy: EVQLVQSGAEVKKPGSSVKVSCKASGGTFSSYAISWVRQAPGQGLEWMGLVDPEDGETIYAEKFQGRVTITADTSTDTAYMELSSLRSEDTAVYYCATEESYGPWGQGTLVTVSSASTKGPSVFPLAPSSKSTSGGTAALGCLVKDYFPEPVTVSWNSGALTSGVHTFPAVLQSSGLYSLSSVVTVPSSSLGTQTYICNVNHKPSNTKVDKRV[omitted - human IgG1 Fc]
light: DIQLTQSPSSLSASVGDRVTITCQASQDISNYLDWYQQKPGKAPKLLIYDASNLETGVPSRFSGSGSGTEFTLTISSLQPEDFATYYCQQLNSYPLTFGGGTKLEIKRTVAAPSVFIFPPSDEQLKSGTASVVCLLNNFYPREAKVQWKVDNALQSGNSQESVTEQDSKDSTYSLSSTLTLSKADYEKHKVYACEVTHQGLSSPVTKSFNRGEC
IC50 inhibition of cell proliferation [1]: 0.1042 µg/mL
ka [2]: 322000 M⁻¹ s⁻¹
kd [2]: 0.0018 s⁻¹
IC50 for anti-mutCALR antibody mediated inhibition of cell proliferation [3]: 21 µg/mL

B2: 51 (antibody)
heavy: EVQLVQSGAEVKKPGSSVKVSCKASGGTFSSYAISWVRQAPGQGLEWMGGIIPIFGTANYAQKFQGRVTITADESTSTAYMELSSLRSEDTAVYYCASSPLRGSGWYWHYYYGMDVWGQGTTVTVSSASTKGPSVFPLAPSSKSTSGGTAALGCLVKDYFPEPVTVSWNSGALTSGVHTFPAVLQSSGLYSLSSVVTVPSSSLGTQTYICNVNHKPSNTKVDKRV[omitted - human IgG1 Fc]
light: SYELTQPPSVSVAPGKTARITCGGNKIGTKSVHWYQQKPGQAPVLVIYQDSKRPSGIPERFSGSNSGNTATLTISGTQAMDEADYYCQAWGSSTVVFGGGTKLTVLGQPKAAPSVTLFPPSSEELQANKATLVCLISDFYPGAVTVAWKADSSPVKAGVETTTPSKQSNNKYAASSYLSLTPEQWKSHRSYSCQVTHEGSTVEKTVAPTECS
Log IC50, Antibody alone (extrapolated from fitted curve) [4]: −1.585* μg/mL
Log IC50, Antibody + ruxolitinib (extrapolated from fitted curve) ([4]; with 50 nM ruxolitinib): −4.962* μg/mL
MPL-mutCALR Hill Slope [5]: 1.31
IC50 inhibition of cell proliferation [1]: 0.9771 µg/mL
ka [2]: 235000 M⁻¹ s⁻¹
kd [2]: 0.00109 s⁻¹
ka [6]: 636000 M⁻¹ s⁻¹
kd [6]: 0.000524 s⁻¹
